Assay results from the antibiotic and cytotoxicity screens of Wong et al. (2023).
The other results are listed elsewhere or left out.

How the values were obtained:
HSkMC = human skeletal muscle cells; assay: cytotoxicity call (relative viability < 0.9); conditions: 10 µM
HepG2 = assay: cytotoxicity call (relative viability < 0.9); conditions: 10 µM
S. aureus RN4220 = assay: growth inhibition call (relative growth <= 0.2); conditions: 50 µM

SMILES | cytotoxicity call (HSkMC) | cytotoxicity call (HepG2) | growth inhibition call (S. aureus RN4220)
C[C@@H]1CN([C@@H](C)CO)C(=O)c2cc(NC(=O)Nc3cccc4ccccc34)ccc2O[C@H]1CN(C)Cc1ccncc1 | inactive | inactive | inactive
CC(=O)Oc1ccc(-c2cc(=O)c3c(OC(C)=O)cc(OC(C)=O)cc3o2)cc1 | inactive | inactive | inactive
C[C@H]1CN([C@@H](C)CO)C(=O)CCCn2cc(nn2)CO[C@@H]1CN(C)C(=O)Nc1ccc2c(c1)OCCO2 | inactive | inactive | inactive
COCCCN1C(=O)[C@@]2(Cc3ccccc31)c1ccccc1C(=O)N(Cc1ccccc1)[C@H]2c1ccc(CO)cc1 | inactive | inactive | inactive
C[C@H](CO)N1C[C@H](C)[C@H](CN(C)C(=O)Nc2ccc(F)cc2)Oc2c(NC(=O)Nc3ccc(C(F)(F)F)cc3)cccc2C1=O | active | active | active
